In PubChem BioAssay AID445 (National Center for Advancing Translational Sciences (NCATS), 2006):
About 40 (0.04%) of roughly 110,000 compounds were called active. Inconclusive means that the source gave no clear call. Such entries were picked first, then a sample of the others. Calls follow the shape of the dose curve; as a rule, active = well fitted curve in the direction sought with a large enough effect in the signal ratio (not every such curve was filed as active); inconclusive = small, poorly fitted or top-dose-only effect, or a change in a side signal; inactive = flat fitted curve, though single readings scatter; the % refers to the signal ratio. A potency beside an inconclusive call is a rough fit, not a confirmed value.

Assay: IkB Signaling;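 as to IkBa stabilization activation: 0% = basal untreated cells and 100% = reference inhibitor full response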
Conditions: ABC-DLBCL IkBa-CBG/CBR dual luciferase ratio (green luciferase fused to IkBa over red control in OCI-Ly3 lymphoma cells), 4 h; IkBa stabilization activation: at 57.1 µM (top of the series), scaled: untreated 0%, proteasome inhibitor 100% unless noted
In short: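 In this assay, an IκBα–CBG68 fusion accumulates when IKK-driven degradation is blocked; native CBR normalizes for cell number. OCI-Ly3 cells were treated 4 h with compound and doxycycline, then green and red light read after Chroma-Glo addition.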
Potency is read from the fitted curve at half-maximal effect.

Row | SMILES | IkBa stabilization activation | Potency
1 | Cc1ccccc1OCC(=O)N(Cc1nc(-c2ccccc2)no1)C(C)C | inconclusive: 3.76% [signal inhibitor] | 
2 | c1ccc(Cn2nnc3c(N4CCCC4)ncnc32)cc1 | inactive | 
3 | Cc1c(C2=CCN(S(=O)(=O)c3ccc(CC(C)C)cc3)CC2)c2ccccc2n1CC(=O)N1CCCC1 | inconclusive: 1.61% [signal inhibitor] | 
4 | CC(=O)c1cn(CC(=O)NCc2ccc3c(c2)OCO3)c2ccccc12 | inconclusive: 2.55% [signal inhibitor] | 
5 | Cn1c(=O)nc2n(-c3ccc(Cl)c(Cl)c3)c3cc(Cl)ccc3cc-2c1=O | inconclusive: 8.65% [signal inhibitor] | 
6 | O=C(Nc1c(C(=O)Nc2ccc(F)cc2)oc2ccccc12)c1ccccc1F | inconclusive: 8.5% [signal inhibitor] | 
7 | CC1=C(C(=O)OCC2CCCCC2)C(c2ccccc2F)CC(=O)N1 (stereo not given) | inconclusive: 3.25% [signal inhibitor] | 
8 | CCCC[S@@](=N)(=O)CC[C@@H](N)C(=O)O | inactive | 
9 | Cc1nn2c(=O)cc(COC(=O)c3ccc(NC(=O)C4CCCCC4)cc3)nc2s1 | inactive | 
10 | Cc1ccc(NC(=O)Cn2c(=O)n(CCCCC(=O)NCCc3ccccc3)c(=O)c3ccccc32)c(C)c1 | inconclusive: 9.22% [signal inhibitor] | 
11 | COc1cc(NC(=O)Cn2nc(C(F)(F)F)c3c2CCCC3)c(OC)cc1Cl |  | inconclusive: 31.6 µM [signal inhibitor, single point]
12 | O=S(=O)(NCCc1csc(-c2cccnc2)n1)c1ccc2c(c1)OCCO2 |  | inconclusive: 0.0398 µM [signal inhibitor, full curve]
13 | COCCNC(=O)c1ccccc1-c1ccccc1C(=O)O | inconclusive: 5.39% [signal inhibitor] | 
14 | COCCNC(=O)CCCn1c(=O)c2cc(OC)c(OC)cc2n(CC(=O)Nc2ccc(F)cc2)c1=O | inconclusive: 11.5% [signal inhibitor] | 
15 | CCOC(=O)C1CCN(CCC(=O)Nc2ccc(Br)c(C)c2)CC1 | inactive | 
16 | O=C(CSc1nc(=O)[nH]c2c1CCCC2)Nc1ccccc1C(F)(F)F | inactive | 
17 | Cc1ccc(NC(=O)C(NS(=O)(=O)c2ccc3c(c2)CCC(=O)N3)c2ccccc2)cc1C (stereo not given) | inconclusive: 5.15% [signal inhibitor] | 
18 | c1ccc2c(-c3ccncc3)c[nH]c2c1 | inconclusive: -3.38% [signal inhibitor] | 
19 | CCOc1ccc(CNC(=O)c2ccc(-c3nc(CS(=O)(=O)c4ccccc4)c(C)o3)cc2)cc1 | inconclusive: -1.31% [signal inhibitor] | 
20 | Cc1nn2c(=O)cc(COC(=O)c3cccc(NC(=O)c4cccs4)c3)nc2s1 | inconclusive: 11.3% [signal inhibitor] | 
21 | Cc1cccc(N(C)S(=O)(=O)c2cc3c(cc2Cl)NC(=O)CO3)c1 | inconclusive: -0.701% [signal inhibitor] | 
22 | COc1cc(N=C(N)N=C(N)N)c2ncccc2c1 | inactive: 0.163% [at 11.4 µM, scaled: untreated 0%, proteasome inhibitor 100%] | 

Row | SMILES | IkBa stabilization activation | Potency
23 | Oc1c([C@H](Nc2ccccn2)c2ccccc2)ccc2cccnc12 | inactive: 4.8% [at 11.4 µM, scaled: untreated 0%, proteasome inhibitor 100%] | 
24 | O=C(Nc1cccc(C(F)(F)F)c1)C1CCCN1S(=O)(=O)c1cccc2cccnc12 (stereo not given) | inconclusive: -0.718% [signal inhibitor] | 
25 | Cc1c(Cl)cccc1NC(=O)CSc1nc(=O)n(Cc2ccccn2)c2c1CCC2 | inconclusive: -0.0056% [signal inhibitor] | 
26 | COc1ccc(OC)c(C(c2nnnn2CCc2ccccc2)N2CCN(c3ccccc3)CC2)c1 (stereo not given) | inconclusive: 0.531% [signal activator] | 
27 | Cc1cc(NC(=O)CSc2nc(C3CCCCC3)nc3ccccc23)no1 | inconclusive: 5.45% [signal inhibitor] | 
28 | CCOC(=O)c1c(NC(=O)c2ccc(S(=O)(=O)N3CCC(C)CC3)cc2)sc2c1CCN(CC)C2 | inconclusive: -0.814% [signal inhibitor] | 
29 | C=Cc1ccc(Cn2nc(-c3ccc(C)cc3)ccc2=O)cc1 | inconclusive: 3.8% [signal inhibitor] | 
30 | CCC(=O)N1CCN(c2ccc(NC(=O)c3cc4ccccc4o3)cc2Cl)CC1 | inconclusive: -3.92% [signal inhibitor] | 
31 | COc1ccc(OC)c(NC(=O)C2CCN(S(=O)(=O)c3ccc4c(c3)CCCC(=O)N4)CC2)c1 | inconclusive: 2.9% [signal inhibitor] | 
32 | O=C(CN1C(=O)COc2ccc(S(=O)(=O)N3CCCC3)cc21)N1CCN(c2ccc(F)cc2)CC1 | inconclusive: 2.73% [signal inhibitor] | 
33 | Cc1cccc(-n2c(Cc3ccccc3)nnc2SCc2nc(-c3cccs3)no2)c1 | inconclusive: 2.44% [signal inhibitor] | 
34 | Cc1ccc(C(=O)Nc2ccccc2C(=O)NC(CC(=O)O)C(=O)O)cc1 (stereo not given) | inconclusive: 3.7% [signal activator] | 
35 | O=C(NC1CCCCC1)C1CCCN(c2nnnn2-c2ccccc2)C1 (stereo not given) | inactive | 
36 | Cc1cccc(Nc2nnc(-c3ccc(C)c(S(=O)(=O)NCC4CCCO4)c3)c3ccccc23)c1 (stereo not given) | inconclusive: 17.6% [signal inhibitor] | 
37 | CCOC(=O)c1ccc(N2C(=O)c3n[nH]c(-c4ccco4)c3C2c2ccc(O)c(OCC)c2)cc1 (stereo not given) | inconclusive: -4.25% [signal inhibitor] | 
38 | CCOc1cccc(C(=O)N2CCC(c3nc4ccccc4s3)CC2)c1 | inconclusive: 2.72% [signal inhibitor] | 
39 | Cn1nc(-c2ccccc2F)c2cc(C(=O)NCCc3ccc(Cl)cc3)sc21 | inconclusive: 1.39% [signal inhibitor] | 
40 | Cc1ccc(S(=O)(=O)Cc2ccc(C(=O)NCCc3ccc(Cl)cc3)o2)cc1 | inconclusive: 4.16% [signal inhibitor] | 
41 | O=C(Nc1ccc(C(F)(F)F)cc1Cl)c1ccc(Cn2cc(Br)cn2)o1 | inconclusive: 1.98% [signal inhibitor] | 
42 | COC(=O)C1=C(C)N(c2cccc3ccccc23)C(=O)C1 |  | inconclusive: 31.6 µM [signal inhibitor, partial curve]
43 | c1ccc(-c2oc3ncnc(NCCCN4CCOCC4)c3c2-c2ccccc2)cc1 | inconclusive: -7.13% [signal inhibitor] | 
44 | COc1cc2[nH]c(=O)n(CCCC(=O)NCc3ccc(Cl)cc3)c(=O)c2cc1OC | inconclusive: -1.47% [signal inhibitor] | 

Row | SMILES | IkBa stabilization activation | Potency
45 | CCc1ccccc1Nc1nn2c(=O)c3ccc(C(=O)NC(C)c4ccccc4)cc3nc2s1 (stereo not given) | inconclusive: 0.66% [signal inhibitor] | 
46 | CN(C)/C=N/c1c(C#N)cnn1-c1ncnc2sc(-c3ccccc3)cc12 | inconclusive: 1.93% [signal inhibitor] | 
47 | O=C(CN1CCCN(S(=O)(=O)c2ccc(Br)cc2)CC1)Nc1ccc2cn[nH]c2c1 | inconclusive: 3.58% [signal inhibitor] | 
48 | CCNc1ncc2nc(-c3cccc(C#N)c3)c(=O)n(CCC#N)c2n1 | inactive: -5.44% [at 11.4 µM, scaled: untreated 0%, proteasome inhibitor 100%] | 
49 | CCOc1cc2[nH]c(=O)n(CCCCC(=O)N3CCN(c4cccc(Cl)c4)CC3)c(=O)c2cc1OCC | inconclusive: 1.11% [signal inhibitor] | 
50 | Cc1cccc2sc(N(Cc3cccnc3)C(=O)c3cccs3)nc12 | inconclusive: 3.49% [signal inhibitor] | 
51 | CCc1ccc(CN2CCc3nc(Nc4ccccc4)ncc3C2)cc1 | inconclusive: 1.14% [signal inhibitor] | 
52 | C=C/C(C)=C/[C@]1(C)SC(=O)C(C)=C1O | inactive | 
53 | COc1cc(-c2nnc3sc(Cc4ccccc4)nn23)cc(OC)c1OC | inactive | 
54 | c1ccc(Cc2nnc3sc(-c4ccc5c(c4)OCCO5)nn23)cc1 | inconclusive: -3.07% [signal inhibitor] | 
55 | COC(=O)c1ccc(NC(=O)CN2C(=O)CCc3cc(S(=O)(=O)N4CCCCC4)ccc32)cc1 | inactive | 
56 | O=C(O)CCn1c(=O)c2cccn2c2cccnc21 | inactive | 
57 | Cc1nc(-n2nnc3ccccc32)c2c3c(sc2n1)CCCC3 | inconclusive: 0.728% [signal inhibitor] | 
58 | COc1cc2cc3c4c(cc(OC)c(OC)c4c2cc1OC)CCN3C | inactive: 3.44% [at 11.4 µM, scaled: untreated 0%, proteasome inhibitor 100%] | 
59 | Cc1cnc(CNc2nc(-c3ccccc3C)nc3ccccc23)cn1 | inactive: 1.16% [at 11.4 µM, scaled: untreated 0%, proteasome inhibitor 100%] | 
60 | CCOc1ccc(CNC(=O)c2cccc(NC(=O)N3CCSc4ncccc43)c2)cc1 | inconclusive: 1.14% [signal inhibitor] | 
61 | CCn1c(C(=O)N2CCC(C(=O)N3CCN(c4cc(C)ccc4C)CC3)CC2)cc2sccc21 | inconclusive: 0.589% [signal inhibitor] | 
62 | CC(=O)N1CCc2cc(S(=O)(=O)NC(CC(C)C)C(=O)Nc3ccc(C(C)C)cc3)ccc21 (stereo not given) | inconclusive: 1.08% [signal inhibitor] | 
63 | CC(C)Cn1cc(NC(=O)Nc2cccc(C(F)(F)F)c2)c2ccccc2c1=O | inactive | 
64 | CCOC(=O)c1c(C)sc(-c2c(-c3ccc4c(c3)OCCO4)[nH]c3c2c(=O)n(C)c(=O)n3C)c1O | inconclusive: -0.323% [signal inhibitor] | 
65 | COc1ccc(C(=O)CSc2nnc(CNc3nc(-c4ccccc4)cs3)n2C)cc1 | inconclusive: 6.74% [signal inhibitor] | 
